Reference: PubChem BioAssay AID1768 (National Center for Advancing Translational Sciences (NCATS), 2009)
The campaign covered roughly 270,000 compounds. About 620 (0.23%) were called active. Inconclusive results, whose numbers are uncertain, are shown with a selection of clear calls. Calls follow the shape of the dose curve; as a rule, active = well fitted inhibition curve with a large enough effect in the polarisation, with a control signal flat (not every such curve was filed as active); inconclusive = small, poorly fitted or top-dose-only effect, or effect the other way, or a change in a side signal; inactive = no such curve, though single readings can be large or run the other way; the % refers to the polarisation. Potencies beside an inconclusive call are fits to weak or partial responses and may not hold up. A note “side channel” means that the fit belongs to a control or component signal, not to the main read-out.

Molecular target: Menin (Homo sapiens) (UniProt O00255)
UniProt O00255, sequence (O00255 whole entry, looked up): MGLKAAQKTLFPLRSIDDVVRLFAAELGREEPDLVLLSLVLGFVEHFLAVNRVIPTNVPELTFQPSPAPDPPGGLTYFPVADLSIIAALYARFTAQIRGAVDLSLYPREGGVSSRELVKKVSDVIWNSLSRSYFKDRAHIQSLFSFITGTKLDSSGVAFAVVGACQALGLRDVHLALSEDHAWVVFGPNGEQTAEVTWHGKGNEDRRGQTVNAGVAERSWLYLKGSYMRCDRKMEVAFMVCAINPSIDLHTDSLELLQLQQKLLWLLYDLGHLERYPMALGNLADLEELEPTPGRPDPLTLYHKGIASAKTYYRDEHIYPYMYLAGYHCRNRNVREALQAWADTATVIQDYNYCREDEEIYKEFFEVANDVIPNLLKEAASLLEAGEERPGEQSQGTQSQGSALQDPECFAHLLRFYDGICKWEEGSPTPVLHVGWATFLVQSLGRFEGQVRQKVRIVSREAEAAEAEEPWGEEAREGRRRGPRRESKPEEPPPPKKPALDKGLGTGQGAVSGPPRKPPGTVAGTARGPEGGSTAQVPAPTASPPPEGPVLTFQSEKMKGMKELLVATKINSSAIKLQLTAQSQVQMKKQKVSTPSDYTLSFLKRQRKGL
Assay: qHTS Assay for Inhibitors Targeting the Menin-MLL Interaction in MLL Related Leukemias: Competition With Texas Red Labeled MLL-derived Mutant Peptide; as to FP activity change, negative = inhibition: % of control where 0% means no effect
Conditions: fluorescence polarization; FP activity change, negative = inhibition: at 61.6 µM (top of the series)
Potency is read from the fitted curve at half-maximal effect; tags tell the direction and shape of the fitted curve or compound fluorescence and quenching.

Row | SMILES | Potency | FP activity change, negative = inhibition
1 | Cc1ccc2[nH]c(=O)c(CN3CCCCC3)c(-c3ccccc3)c2c1 | inconclusive: 12.6 µM [inhibitor, partial curve] | –
2 | O=C1CC(c2ccccc2)CC(O)=C1C=NCc1ccc(Cl)cc1 (stereo unspecified) | inconclusive: 25.1 µM [inhibitor, single point] | –
3 | c1ccc(SCc2nc(-c3ccncc3)no2)cc1 | inconclusive: 5.62 µM [inhibitor, full curve, poor fit] | –
4 | O=C(O)c1cnc(-c2ccccc2)nc1Sc1ccccc1 | inconclusive: 8.91 µM [quencher, side channel, partial curve] | –
5 | CCOc1cc(/C=C2\SC(=S)N(Nc3ccccc3)C2=O)ccc1O | inconclusive: 14.1 µM [fluorescent, side channel, partial curve] | –
6 | Cc1ccc(S(=O)(=O)Nc2ccc(Cl)cc2)cc1NC(=O)c1cc2c(s1)CCCC2 | inconclusive: 39.8 µM [inhibitor, single point] | –
7 | CCC(Sc1nc2ccncc2[nH]1)C(=O)Nc1cc(Cl)ccc1C (stereo unspecified) | inconclusive: 2.82 µM [inhibitor, partial curve] | –
8 | COc1ccccc1C1(O)CCN(CC(=O)Nc2nc(-c3ccccc3)cs2)CC1 | – | inactive: -14.6%
9 | CCC(=O)NC(=S)Nc1ccc(NC(=O)COc2ccccc2)cc1 | inconclusive: 31.6 µM [quencher, side channel, single point] | –
10 | CCOC(=O)C1(CCCc2ccccc2)CCN(C(=O)c2ocnc2C)CC1 | inconclusive: 10 µM [fluorescent, side channel, partial curve] | –
11 | CC(=O)[C@H](CC(C)C)NC(=O)[C@@H](CC(C)C)NC(=O)[C@H](CC(C)C)NC(=O)OCc1ccccc1 | – | inactive: -19.1% [at 24.8 µM]
12 | Nn1c(SCC(=O)N2CCc3ccccc3C2)nnc1-c1cccs1 | inconclusive: 17.8 µM [fluorescent, side channel, single point] | –
13 | Cc1ccc(S(=O)(=O)N/N=C/c2ccc(OCC(=O)Nc3ccccc3Cl)cc2)cc1 | inconclusive: 14.1 µM [quencher, side channel, partial curve] | –
14 | C=C(C)c1cccc(C(C)(C)NC(=O)NC2CCN(Cc3ccccc3)CC2)c1 | inconclusive: 8.91 µM [inhibitor, partial curve] | –
15 | Cc1ccc(C(=O)COC(=O)CNC(=O)COc2ccccc2C)cc1C | inconclusive: 10 µM [inhibitor, partial curve] | –
16 | CCC(=O)N1N=C(c2ccc(C)o2)CC1c1ccc(OC)cc1 (stereo unspecified) | inconclusive: 14.1 µM [fluorescent, side channel, partial curve] | –
